{"source": "PubChem BioAssay (NCATS)", "key": {"[1]": {"test": "Cell Viability - LYMP2-014 (AID 983); note: potency is the fitted concentration of half-maximal effect; nearly all actives have a fitted effect of over 50% in size", "method_in_brief": "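Decrease in intracellular ATP after 24 hr treatment at 37 C, measured by luciferase luminescence, indicated cytotoxicity. Concentration-response data were fitted with the standard Hill equation to give AC50.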"}, "[2]": {"test": "Cell Viability - LYMP2-016 (AID 984); note: potency is the fitted concentration of half-maximal effect; nearly all actives have a fitted effect of over 55% in size", "conditions": "LYMP2-016 lymphoblastoid cell viability, qHTS; activity change, negative = cytotoxicity: at 92.2 µM (top of the series)", "method_in_brief": "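Cells were seeded at 2500 per well and rested 5 hr before a 24 hr compound exposure at 37 C. Viability was then gauged as cellular ATP by luciferase luminescence, with AC50 values fitted to the Hill equation.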"}, "[3]": {"test": "Cell Viability - LYMP2-018 (AID 985); note: potency is the fitted concentration of half-maximal effect; nearly all actives have a fitted effect of over 50% in size", "method_in_brief": "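Acute cytotoxicity is scored as a concentration-dependent drop in intracellular ATP after 24 hr exposure of the lymphoblastoid line in complete culture medium, measured by luciferase luminescence. Potency is expressed as AC50 from Hill modelling.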"}, "[4]": {"test": "Cell Viability - LYMP1-002 - Assay at 40 hr (AID 994); note: potency is the fitted concentration of half-maximal effect; nearly all actives have a fitted effect of over 60% in size", "method_in_brief": "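Viability in the human lymphoblastoid line was measured as intracellular ATP via CellTiter-Glo after 40 hr compound exposure. Tetraoctylammonium bromide served as positive control.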"}, "[5]": {"target": "Estrogen receptor (Homo sapiens) (UniProt P03372)", "sequence (P03372 whole entry, looked up)": "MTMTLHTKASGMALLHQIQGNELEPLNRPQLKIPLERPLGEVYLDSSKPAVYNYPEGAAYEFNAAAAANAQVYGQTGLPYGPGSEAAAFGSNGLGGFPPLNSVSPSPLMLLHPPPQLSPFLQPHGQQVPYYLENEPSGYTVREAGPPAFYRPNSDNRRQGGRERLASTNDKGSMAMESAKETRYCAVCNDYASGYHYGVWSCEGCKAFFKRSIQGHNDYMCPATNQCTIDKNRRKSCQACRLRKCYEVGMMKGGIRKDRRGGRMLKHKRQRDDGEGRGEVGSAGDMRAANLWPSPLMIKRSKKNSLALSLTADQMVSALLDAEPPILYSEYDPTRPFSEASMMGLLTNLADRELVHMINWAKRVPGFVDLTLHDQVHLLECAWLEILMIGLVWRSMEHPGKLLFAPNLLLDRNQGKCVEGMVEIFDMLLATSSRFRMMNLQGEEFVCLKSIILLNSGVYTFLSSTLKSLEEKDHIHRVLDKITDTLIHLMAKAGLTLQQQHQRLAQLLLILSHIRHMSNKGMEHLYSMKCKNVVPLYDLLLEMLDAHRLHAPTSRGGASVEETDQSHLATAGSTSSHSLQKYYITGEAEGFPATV", "test": "qHTS assay for small molecule antagonists of estrogen receptor alpha signaling (AID 588513; active = well fitted curve in the direction sought with a large enough effect in the signal ratio, with a control signal flat, not every such curve was filed as active; inconclusive = small, poorly fitted or top-dose-only effect, or effect the other way, or a change in a side signal; inactive = no such curve, though single readings can be large or run the other way; the % refers to the signal ratio; note: potency is the fitted concentration of half-maximal effect)", "conditions": "ER-alpha-UAS-bla HEK293, beta-lactamase ratio, antagonist mode; activity, negative = inhibition: at 76.9 µM (top of the series) unless noted", "method_in_brief": "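Fluorescence from CCF4 substrate after 2 h at room temperature gave reporter activity; cells had been exposed to compound and 0.5nM 17-beta-estradiol for 18 h at 37 C. Hill-equation fitting yielded IC50 and maximal response.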"}, "[6]": {"target": "Glucocorticoid receptor (Homo sapiens) (UniProt P04150)", "test": "qHTS assay for small molecule antagonists of glucocorticoid receptor signaling (AID 588533; active = well fitted inhibition curve with a large enough effect in the signal ratio, with a control signal flat, not every such curve was filed as active; inconclusive = small, poorly fitted or top-dose-only effect, or effect the other way, or a change in a side signal; the % refers to the signal ratio;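 note: cells stimulated with 2 nM dexamethasone as agonist; % is set by controls: 0 for no effect and ±100 for the full control effect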)", "conditions": "HeLa MMTV-bla, GRE beta-lactamase ratio, antagonist mode, 18 h; activity change, negative = inhibition: at 76.8 µM (top of the series)"}, "[7]": {"target": "Peroxisome proliferator-activated receptor gamma (Homo sapiens) (UniProt P37231)", "test": "qHTS assay for small molecule agonists of peroxisome proliferator-activated receptor gamma signaling (AID 588536; active = well fitted curve in the direction sought with a large enough effect in the signal ratio, with a control signal flat, not every such curve was filed as active; inconclusive = small, poorly fitted or top-dose-only effect, or effect the other way, or a change in a side signal; inactive = no such curve, though single readings can be large or run the other way; the % refers to the signal ratio; note: potency is the fitted concentration of half-maximal effect)", "conditions": "HEK293 PPARg-UAS-bla, beta-lactamase ratio, 16 h; activation: at 76.7 µM (top of the series), percent of rosiglitazone response, DMSO as zero", "method_in_brief": "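GeneBLAzer PPAR-gamma-UAS-bla HEK293 cells in 1% charcoal/dextran-treated FBS medium were treated 16 h at 37 C with compounds. Beta-lactamase activity was read by CCF4 ratio (460/530 nm). Response was normalized to 2 uM rosiglitazone (100%) and DMSO, then Hill-fitted for EC50 and efficacy.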"}, "[8]": {"target": "Peroxisome proliferator-activated receptor gamma (Homo sapiens) (UniProt P37231)", "test": "qHTS assay for small molecule antagonists of peroxisome proliferator-activated receptor gamma signaling (AID 588537; active = well fitted inhibition curve with a large enough effect in the signal ratio, with a control signal flat, not every such curve was filed as active; inconclusive = small, poorly fitted or top-dose-only effect, or effect the other way, or a change in a side signal; the % refers to the signal ratio; note: potency is the fitted concentration of half-maximal effect)", "conditions": "HEK293 PPARg-UAS-bla, beta-lactamase ratio, antagonist mode; activity, negative = inhibition: at 76.8 µM (top of the series)", "method_in_brief": "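Step one: plate 3000 HEK293 UAS-bla cells per well in medium with 1% stripped serum and hold 6-6.5 h at 37 C. Step two: add compound and 50 nM agonist for 16 h. Step three: CCF4 loading, fluorescence read.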"}, "[9]": {"target": "Vitamin D3 receptor (Homo sapiens) (UniProt P11473)", "test": "qHTS assay for small molecule antagonists of vitamin D receptor signaling (AID 588541; calls by dose curve; note: potency is the fitted concentration of half-maximal effect)", "conditions": "HEK293T VDR-UAS-bla, beta-lactamase ratio, antagonist mode; activity change, negative = inhibition: at 76.7 µM (top of the series)"}, "[10]": {"target": "Vitamin D3 receptor (Homo sapiens) (UniProt P11473)", "test": "qHTS assay for small molecule agonists of vitamin D receptor signaling (AID 588543; calls by dose curve; note: potency is the fitted concentration of half-maximal effect)", "conditions": "HEK293T VDR-UAS-bla, beta-lactamase ratio, 16 h; activation: at 76.8 µM (top of the series)", "method_in_brief": "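Reporter cells (HEK293T, VDR-UAS-bla) were seeded in medium with 2% charcoal-stripped serum and incubated 5 h, then compounds in concentration series were added for 16 h at 37 °C. Stimulation was scaled between DMSO basal and 50 nM 1α,25-dihydroxyvitamin D3.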"}, "[11]": {"target": "Retinoic acid receptor RXR-alpha (Homo sapiens) (UniProt P19793)", "sequence (P19793 whole entry, looked up)": "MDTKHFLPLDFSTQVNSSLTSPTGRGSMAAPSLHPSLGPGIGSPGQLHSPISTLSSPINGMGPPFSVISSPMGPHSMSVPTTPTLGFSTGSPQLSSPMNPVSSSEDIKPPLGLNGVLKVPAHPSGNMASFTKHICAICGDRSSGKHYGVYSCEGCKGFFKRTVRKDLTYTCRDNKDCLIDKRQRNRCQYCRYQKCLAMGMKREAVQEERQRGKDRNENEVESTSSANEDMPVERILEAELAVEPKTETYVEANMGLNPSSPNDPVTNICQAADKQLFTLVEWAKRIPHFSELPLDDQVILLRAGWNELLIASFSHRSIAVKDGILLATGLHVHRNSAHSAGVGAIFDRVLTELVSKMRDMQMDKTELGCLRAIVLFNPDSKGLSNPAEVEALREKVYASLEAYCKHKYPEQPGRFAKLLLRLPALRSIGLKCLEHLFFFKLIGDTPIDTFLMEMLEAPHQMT", "test": "qHTS assay for small molecule agonists of retinoid X receptor alpha signaling (AID 588544; calls by dose curve;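 note: 0% = DMSO basal wells and 100% = reference agonist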)", "conditions": "HEK293T RXRa-UAS-bla, beta-lactamase reporter, 18 h; activation: at 76.7 µM (top of the series) unless noted"}, "[12]": {"target": "Voltage-gated inwardly rectifying potassium channel KCNH2 (Homo sapiens) (UniProt Q12809)", "sequence (Q12809 whole entry, looked up)": "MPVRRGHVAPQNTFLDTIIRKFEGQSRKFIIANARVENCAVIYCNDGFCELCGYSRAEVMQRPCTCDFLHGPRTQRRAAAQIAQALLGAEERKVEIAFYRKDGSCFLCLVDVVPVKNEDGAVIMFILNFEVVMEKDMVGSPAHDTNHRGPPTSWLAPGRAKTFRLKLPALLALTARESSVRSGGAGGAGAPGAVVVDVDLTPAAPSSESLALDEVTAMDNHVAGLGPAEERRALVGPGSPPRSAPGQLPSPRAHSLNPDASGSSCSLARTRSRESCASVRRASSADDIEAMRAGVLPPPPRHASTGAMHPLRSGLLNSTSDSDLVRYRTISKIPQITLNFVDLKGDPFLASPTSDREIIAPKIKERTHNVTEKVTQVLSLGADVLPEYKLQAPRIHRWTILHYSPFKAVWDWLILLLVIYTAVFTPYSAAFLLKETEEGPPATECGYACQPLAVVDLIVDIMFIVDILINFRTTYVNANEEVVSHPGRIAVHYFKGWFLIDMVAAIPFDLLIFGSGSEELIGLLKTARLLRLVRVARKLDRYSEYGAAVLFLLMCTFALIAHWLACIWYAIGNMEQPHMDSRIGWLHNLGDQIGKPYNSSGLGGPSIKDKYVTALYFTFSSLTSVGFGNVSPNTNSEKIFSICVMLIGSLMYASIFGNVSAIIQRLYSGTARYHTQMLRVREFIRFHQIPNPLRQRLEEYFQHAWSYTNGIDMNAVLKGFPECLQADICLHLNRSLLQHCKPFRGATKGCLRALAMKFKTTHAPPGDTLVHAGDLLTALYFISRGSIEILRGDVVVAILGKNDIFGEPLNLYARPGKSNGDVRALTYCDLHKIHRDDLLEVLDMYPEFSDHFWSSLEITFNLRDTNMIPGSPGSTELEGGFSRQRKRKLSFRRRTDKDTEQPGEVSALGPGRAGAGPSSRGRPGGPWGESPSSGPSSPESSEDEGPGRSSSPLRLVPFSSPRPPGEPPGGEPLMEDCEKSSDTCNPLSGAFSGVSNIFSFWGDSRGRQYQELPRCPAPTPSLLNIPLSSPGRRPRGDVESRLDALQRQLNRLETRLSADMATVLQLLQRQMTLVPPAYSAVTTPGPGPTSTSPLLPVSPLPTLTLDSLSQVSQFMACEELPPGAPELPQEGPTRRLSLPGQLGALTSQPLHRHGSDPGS", "test": "qHTS Assay for Small Molecule Inhibitors of the Human hERG Channel Activity (AID 588834);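 note: top concentration of the series differs between compounds; % is set by controls: 0 for no effect and ±100 for the full control effect; lower thallium flux fluorescence means stronger hERG block; nearly all actives have a fitted effect of over 50% in size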", "method_in_brief": "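hERG-BacMam U2OS, 2000 cells/well; 0.7X FluxOR loading 1 hr RT dark; cpd ~10 min 37 °C; stim buffer; FDSS fluorescence 2 min @ 1 s; AC50 Hill fit.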"}, "[13]": {"test": "qHTS assay for small molecule activators of the nuclear factor-kappa B (NF-kB) signaling pathway (AID 651749; active = well fitted activation curve with a large enough effect in the signal ratio; inconclusive = small, poorly fitted or top-dose-only effect, or a change in a side signal; the % refers to the signal ratio; note: % of control where 0% means no effect)", "conditions": "NF-kB-bla ME-180 cells, beta-lactamase FRET ratio, 16 h; activation: stronger effect = higher value", "method_in_brief": "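Incubation lasted 16 hr at 37C in 5% CO2 after 23 nL compound addition to ME-180 NF-kB-bla cells. Activation appears as beta-lactamase-mediated FRET loss.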"}, "[14]": {"test": "qHTS assay for small molecule disruptors of the mitochondrial membrane potential - 1 hr assay (AID 651754; calls by dose curve; note: potency is the fitted concentration of half-maximal effect; nearly all actives have a fitted effect of over 35% in size)", "conditions": "ratio change, negative = depolarisation: at 92.2 µM (top of the series)", "method_in_brief": "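Steps: seed HepG2 cells and let attach overnight; pin-transfer compound or vehicle; incubate 1 hr at 37C; add Mito-MPS dye for 30 min; read two-channel fluorescence for monomer and aggregate forms.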"}, "[15]": {"test": "qHTS assay for small molecule disruptors of the mitochondrial membrane potential - 5 hr assay (AID 651755; calls by dose curve; note: potency is the fitted concentration of half-maximal effect; nearly all actives have a fitted effect of over 40% in size)", "conditions": "JC-1-type ratio dye; ratio change, negative = disruption: at 92.2 µM (top of the series)", "method_in_brief": "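HepG2 cells (2,000/well), attached overnight, exposed to compound 5 hr at 37C, then Mito-MPS dye 30 min. Fluorescence read for monomers (490/535 nm) and aggregates (540/590 nm).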"}, "[16]": {"target": "Tumor necrosis factor (Homo sapiens) (UniProt P01375)", "sequence (P01375 whole entry, looked up)": "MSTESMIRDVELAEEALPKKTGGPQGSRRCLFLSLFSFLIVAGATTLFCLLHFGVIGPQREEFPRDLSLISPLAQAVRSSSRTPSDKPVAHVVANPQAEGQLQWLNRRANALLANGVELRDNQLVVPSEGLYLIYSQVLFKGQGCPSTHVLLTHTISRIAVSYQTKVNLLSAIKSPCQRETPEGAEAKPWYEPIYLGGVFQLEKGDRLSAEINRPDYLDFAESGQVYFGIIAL", "test": "qHTS assay to identify small molecules that stimulate Tumor Necrosis Factor-alpha (TNF-alpha) secretion (AID 651757; active = well fitted curve in the direction sought with a large enough effect in the signal ratio; inconclusive = small, poorly fitted or top-dose-only effect, or a change in a side signal; inactive = no such curve, though single readings can be large or run the other way; the % refers to the signal ratio; note: 0% is about no effect)", "conditions": "Human cells, HTRF 665/615 ratio; activation (TNF-alpha secretion): at 92.2 µM (top of the series)", "method_in_brief": "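Secreted TNF-alpha from compound-treated THP-1 cells (17 hrs, 37 C) was quantified with a homogeneous time-resolved fluorescence antibody assay.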"}, "[17]": {"test": "qHTS assay to identify small molecules that stimulate interleukin-8 (IL-8) secretion (AID 651758; active = well fitted activation curve with a large enough effect in the signal ratio; inconclusive = small, poorly fitted or top-dose-only effect, or effect the other way, or a change in a side signal; the % refers to the signal ratio; note: potency is the fitted concentration of half-maximal effect)", "conditions": "HTRF ratio (665/615); activation: at 92.2 µM (top of the series)", "method_in_brief": "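THP-1 cells (2000/well) exposed to compound 16 h at 37 C; secreted IL-8 then detected by HTRF with cryptate- and XL665-labelled anti-IL-8 antibody pair after 1-3 h at room temperature.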"}, "[18]": {"target": "Nuclear receptor ROR-gamma (Homo sapiens) (UniProt P51449)", "sequence (P51449 whole entry, looked up)": "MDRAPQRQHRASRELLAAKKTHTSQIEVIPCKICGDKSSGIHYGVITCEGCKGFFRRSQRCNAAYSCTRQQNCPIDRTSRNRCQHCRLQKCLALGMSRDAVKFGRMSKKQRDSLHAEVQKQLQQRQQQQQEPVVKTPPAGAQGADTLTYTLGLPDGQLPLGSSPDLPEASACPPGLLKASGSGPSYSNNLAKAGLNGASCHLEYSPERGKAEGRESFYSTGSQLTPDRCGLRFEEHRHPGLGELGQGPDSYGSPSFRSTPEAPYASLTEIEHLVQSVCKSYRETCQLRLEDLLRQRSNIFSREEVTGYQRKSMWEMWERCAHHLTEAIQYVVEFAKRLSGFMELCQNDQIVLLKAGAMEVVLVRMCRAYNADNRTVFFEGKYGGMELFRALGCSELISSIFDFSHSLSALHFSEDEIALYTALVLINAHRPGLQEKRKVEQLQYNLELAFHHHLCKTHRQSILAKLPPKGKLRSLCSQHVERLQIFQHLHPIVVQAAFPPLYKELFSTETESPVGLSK", "test": "qHTS assay for small molecule antagonists of the retinoid-related orphan receptor gamma (ROR-gamma) signaling pathway (AID 651802); note: potency is the fitted concentration of half-maximal effect; nearly all actives have a fitted effect of over 60% in size", "method_in_brief": "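Antagonism is scored as a fall in luminescence from a RORE-luciferase reporter in CHO cells expressing ROR under a TET-inducible promoter, measured 16hr after doxycycline induction in the presence of compound.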"}, "[19]": {"test": "qHTS assay for small molecule agonists of the antioxidant response element (ARE) signaling pathway measured by Nrf2-dependant transcriptional activity (AID 720636; active = well fitted curve in the direction sought with a large enough effect in the repeat runs; inconclusive = weak or mixed curves; inactive = no such curve, though single readings can be large; an effect the other way counts as inactive or inconclusive; note: potency is the fitted concentration of half-maximal effect)", "method_in_brief": "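Quantitative HTS format in HepG2 cells stably expressing an ARE-luciferase reporter; 16 hr compound treatment at 37 C, luciferase signal detected with ONE-Glo.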"}, "[20]": {"test": "qHTS assay for small molecule antagonists of the retinoid-related orphan receptor gamma (ROR-gamma) signaling pathway - cell viability counter screen (AID 720652; active = well fitted curve in the direction sought with a large enough effect in the repeat runs; inconclusive = weak or mixed curves; inactive = no such curve, though single readings can be large; an effect the other way counts as inactive or inconclusive; note: % is set by controls: 0 for no effect and ±100 for the full control effect)", "method_in_brief": "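Cytotoxicity is quantified via intracellular ATP (CellTiter-Glo luminescence) in doxycycline-induced CHO ROR response element-luciferase reporter cells treated with compound for 16 hr at 37 C, 5% CO2.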"}}, "note": "The shares of active, inactive and inconclusive entries below differ from those in the screen. For some assays here: Where the call is inconclusive, the potency comes from a doubtful curve fit. For some assays here: “Side channel” marks fits to a control or component signal instead of the main read-out. Calls of active or inactive are those of the source. Unless noted, calls come from the whole dose curve; as a rule, active = well fitted curve in the direction sought with a large enough effect; inconclusive = small, poorly fitted or top-dose-only effect, or another doubt; inactive = no such curve, though single readings can be large; an effect the other way counts as inactive or inconclusive. Tags give direction and shape of the fitted curve or compound fluorescence and quenching.", "data": [{"compound": "Cc1ccc(O)c(N)c1", "values": [{"measurement": "Potency", "setting": "[1]", "value": "inconclusive: 79.4 µM [cytotoxic, single point]"}, {"measurement": "Potency", "setting": "[2]", "value": "inconclusive: 79.4 µM [cytotoxic, partial curve, poor fit]"}, {"measurement": "Potency", "setting": "[3]", "value": "inconclusive: 50.1 µM [cytotoxic, partial curve, poor fit]"}, {"measurement": "Potency", "setting": "[4]", "value": "inconclusive: 31.6 µM [cytotoxic, partial curve]"}, {"measurement": "Potency", "setting": "[5]", "value": "inconclusive: 50.1 µM [falling, single point]"}, {"measurement": "activity change, negative = inhibition", "setting": "[6]", "value": "inconclusive: -12.8%"}, {"measurement": "Potency", "setting": "[7]", "value": "inconclusive: 7.94 µM [side channel, falling, full curve, poor fit]"}, {"measurement": "Potency", "setting": "[8]", "value": "inconclusive: 44.7 µM [falling, partial curve, poor fit]"}, {"measurement": "Potency", "setting": "[9]", "value": "inconclusive: 25.1 µM [side channel, rising, single point]"}, {"measurement": "Potency", "setting": "[10]", "value": "inconclusive: 35.5 µM [side channel, falling, partial curve, poor fit]"}, {"measurement": "Potency", "setting": "[11]", "value": "inactive"}, {"measurement": "Potency", "setting": "[12]", "value": "inactive"}, {"measurement": "activation", "setting": "[13]", "value": "inconclusive: -3.95%"}, {"measurement": "Potency", "setting": "[14]", "value": "active: 29.8 µM"}, {"measurement": "Potency", "setting": "[15]", "value": "active: 33.5 µM"}, {"measurement": "activation (TNF-alpha secretion)", "setting": "[16]", "value": "inconclusive: 1.53%"}, {"measurement": "Potency", "setting": "[17]", "value": "inconclusive: 66.8 µM [activator, single point]"}, {"measurement": "Potency", "setting": "[18]", "value": "inconclusive: 75 µM [inhibitor, single point]"}, {"measurement": "Potency", "setting": "[19]", "value": "active: 42.2 µM"}, {"measurement": "Potency", "setting": "[20]", "value": "inactive"}]}]}
